In PubChem BioAssay (Tox21):
Where “and” joins values, the source holds several entries; their conditions need not be identical. Equal entries are not always repeated. Inconclusive results, whose numbers are uncertain, are shown with a selection of clear calls. For some assays here: Potencies beside an inconclusive call are fits to weak or partial responses and may not hold up. Calls of active or inactive are those of the source. Unless noted, calls follow the shape of the dose curve; as a rule, active = well fitted curve in the direction sought with a large enough effect in the repeat runs; inconclusive = weak or mixed curves; inactive = no such curve, though single readings can be large; an effect the other way counts as inactive or inconclusive.

Legend:
[1] = qHTS assay to identify small molecule antagonists of the peroxisome proliferator-activated receptor delta (PPARd) signaling pathway - cell viability counter screen (AID 743213); settings: PPARd-bla HEK293H viability, CellTiter-Glo luminescence, 17 h; viability change, negative = cytotoxic: at 62 µM (top of the series) unless noted; also: nearly all actives have a fitted effect of over 50% in size; also: potency is read from the fitted curve at half-maximal effect; as to viability change, negative = cytotoxic: % is scaled to controls: 0 for no effect and ±100 for the full control effect
Outline: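 CellTiter-Glo was added to PPARd-bla HEK293H wells following 17 h compound treatment in the presence of 300 nM L165041. Luminescence was recorded after 30 min at room temperature.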

[2] = biological target: Bile acid receptor (Homo sapiens) (UniProt Q96RI1); experiment: qHTS assay to identify small molecule agonists of the farnesoid-X-receptor (FXR) signaling pathway (AID 743220; active = well fitted activation curve with a large enough effect in the signal ratio in the repeat runs, not every such curve was filed as active; inconclusive = weak or mixed curves, or effect the other way; the % refers to the signal ratio; also: potency is read from the fitted curve at half-maximal effect); settings: HEK293T FXR-UAS-bla, beta-lactamase FRET ratio, 16 h; activation: at 62.6 µM (top of the series) unless noted
Outline: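 Beta-lactamase reporter under UAS control in GeneBLAzer FXR HEK 293T cells (5000/well) measured with LiveBLAzer FRET substrate after 2 h at room temperature. Compound exposure lasted 16 h at 37C.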

[3] = biological target: Vitamin D3 receptor (Homo sapiens) (UniProt P11473); experiment: qHTS assay to identify small molecule agonists of the vitamin D receptor (VDR) signaling pathway (AID 743222; calls by dose curve; also: potency is read from the fitted curve at half-maximal effect); settings: HEK293T VDR-UAS-bla, beta-lactamase FRET ratio, 16 h; activation: at 63.5 µM (top of the series) unless noted
Outline: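 Agonist activity measured in VDR-bla reporter cells. Exposure 16 h, 37C, 5% CO2; detection by B/G FRET substrate, 2 h RT.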

[4] = biological target: Vitamin D3 receptor (Homo sapiens) (UniProt P11473); experiment: qHTS assay to identify small molecule antagonists of the vitamin D receptor (VDR) signaling pathway (AID 743223; active = well fitted inhibition curve with a large enough effect in the signal ratio in the repeat runs, not every such curve was filed as active; inconclusive = weak or mixed curves, or effect the other way; inactive = no such curve, though single readings can be large or run the other way; the % refers to the signal ratio; also: potency is read from the fitted curve at half-maximal effect); settings: VDR-UAS-bla HEK293T, beta-lactamase FRET ratio, 16 h; activity change, negative = inhibition: at 61 µM (top of the series) unless noted
Outline: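 Quantitative HTS in VDR-bla reporter cells stimulated with 1alpha,25-dihydroxyvitamin D3, 3 nM final. Compound exposure 16 h, 37C, 5% CO2. Read-out: beta-lactamase FRET substrate fluorescence, 2 h RT.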

[5] = qHTS assay to identify small molecule antagonists of the vitamin D receptor (VDR) signaling pathway - cell viability counter screen (AID 743225); settings: VDR-bla HEK293T viability, CellTiter-Glo luminescence, 16 h; viability change, negative = cytotoxic: at 61 µM (top of the series) unless noted; also: potency is read from the fitted curve at half-maximal effect; nearly all actives have a fitted effect of over 50% in size
Outline: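 Same-well multiplex: following 16 h treatment of HEK 293T cells carrying a UAS-driven beta-lactamase reporter with compound and agonist (3 nM final), and a 2 h FRET substrate step, CellTiter-Glo was added and luminescence read after 30 min.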

[6] = qHTS assay to identify small molecule agonists of the endoplasmic reticulum stress response signaling pathway (AID 1159516; active = well fitted activation curve with a large enough effect in the signal ratio in the repeat runs, not every such curve was filed as active; inconclusive = weak or mixed curves, or effect the other way; the % refers to the signal ratio; also: potency is read from the fitted curve at half-maximal effect); settings: ESRE-bla HeLa, ER stress beta-lactamase reporter, 5 h; activation: at 61 µM (top of the series) unless noted
Outline: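 ER stress element reporter (bla) in HeLa. 1,500 cells/well, overnight attachment; 5 hr compound; 2 hr RT substrate; dual-emission fluorescence.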

[7] = biological target: Retinoic acid receptor RXR-alpha (Homo sapiens) (UniProt P19793); experiment: qHTS assay to identify small molecule agonists of the RXR signaling pathway (AID 1159527; calls by dose curve; also: nearly all actives have a fitted effect of over 35% in size; also: potency is read from the fitted curve at half-maximal effect); settings: HEK293T RXRa-UAS-bla, beta-lactamase ratio, 16 h; activation: at 76.8 µM (top of the series) unless noted
Outline: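 Compounds in DMSO were added to RXR-alpha-UAS-bla HEK 293T cells kept in 2% charcoal-stripped serum, and incubated 16 hr at 37 C with 5% CO2. Reporter signal came from a 2 hr B/G FRET substrate step.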

[8] = qHTS assay to identify small molecule agonists of the RXR signaling pathway - cell viability counter screen (AID 1159529); also: potency is read from the fitted curve at half-maximal effect; nearly all actives have a fitted effect of over 50% in size
Outline: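 Counter screen: CellTiter-Glo luminescence. Cells: RXR-alpha-UAS-bla HEK 293T. Medium: 2% charcoal-stripped FBS. Treatment: 16 h, 37 C. Reagent incubation: 30 min, RT.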

[9] = biological target: Bile acid receptor (Homo sapiens) (UniProt Q96RI1); experiment: qHTS assay to identify small molecule antagonists of the farnesoid-X-receptor (FXR) signaling pathway (AID 743217; active = well fitted inhibition curve with a large enough effect in the signal ratio in the repeat runs, not every such curve was filed as active; inconclusive = weak or mixed curves, or effect the other way; inactive = no such curve, though single readings can be large or run the other way; the % refers to the signal ratio; also: potency is read from the fitted curve at half-maximal effect); settings: HEK293T FXR-UAS-bla, beta-lactamase ratio, CDCA-stimulated, 16 h; activity change, negative = inhibition: at 62.6 µM (top of the series) unless noted
Outline: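 Beta-lactamase reporter under UAS control in HEK 293T cells; compound exposure 16 h at 37 °C in the presence of chenodeoxycholic acid (50 uM final); signal from B/G FRET substrate after 2 h at room temperature.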

[10] = qHTS assay to identify small molecule agonists of the farnesoid-X-receptor (FXR) signaling pathway - cell viability counter screen (AID 743218); settings: FXR-bla HEK293T viability, CellTiter-Glo luminescence, 16 h; viability change, negative = cytotoxic: at 62.6 µM (top of the series) unless noted; also: potency is read from the fitted curve at half-maximal effect; nearly all actives have a fitted effect of over 45% in size
Outline: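 In GeneBLAzer FXR-UAS-bla HEK 293T cells, compounds act for 16 h at 37 C. Cell viability is then scored in the reporter wells by CellTiter-Glo, 30 min at RT, luminescence.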

[11] = qHTS assay to identify small molecule antagonists of the farnesoid-X-receptor (FXR) signaling pathway - cell viability counter screen (AID 743221; active = well fitted cell-killing curve with a large enough effect in the repeat runs, not every such curve was filed as active; inconclusive = weak or mixed curves, or effect the other way; inactive = no such curve, though single readings can be large or run the other way; also: potency is read from the fitted curve at half-maximal effect; nearly all actives have a fitted effect of over 50% in size); settings: FXR-bla HEK293T viability, CellTiter-Glo luminescence, 16 h; activity change, negative = cytotoxicity: at 62.6 µM (top of the series)
Outline: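 Cytotoxicity is taken from ATP luminescence (CellTiter-Glo, 30 min, room temperature) in FXR-bla HEK 293T cells previously incubated 16 h at 37 C with compound and chenodeoxycholic acid at 50 uM final.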

[12] = biological target: Peroxisome proliferator-activated receptor delta (Homo sapiens) (UniProt Q03181); experiment: qHTS assay to identify small molecule agonists of the peroxisome proliferator-activated receptor delta (PPARd) signaling pathway (AID 743212; calls by dose curve; also: % is scaled to controls: 0 for no effect and ±100 for the full control effect); settings: HEK293H PPARd-UAS-bla, beta-lactamase FRET ratio, 17 h; activation: at 62.6 µM (top of the series) unless noted
Outline: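 HEK293H PPARd-bla cells; 5 h preincubation 37 C/5% CO2; compound (DMSO) 37 C; LiveBLAzer B/G FRET substrate 2 h RT; fluorescence intensity.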

[13] = biological target: Peroxisome proliferator-activated receptor delta (Homo sapiens) (UniProt Q03181); experiment: qHTS assay to identify small molecule antagonists of the peroxisome proliferator-activated receptor delta (PPARd) signaling pathway (AID 743215; active = well fitted inhibition curve with a large enough effect in the signal ratio in the repeat runs, not every such curve was filed as active; inconclusive = weak or mixed curves, or effect the other way; inactive = no such curve, though single readings can be large or run the other way; the % refers to the signal ratio;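 also: cells stimulated with agonist L165041 at 300 nM final during compound exposure; % is scaled to controls: 0 for no effect and ±100 for the full control effect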); settings: HEK293H PPARd-UAS-bla, beta-lactamase FRET ratio, antagonist, 17 h; ratio activity, negative = inhibition: at 62 µM (top of the series) unless noted
Outline: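 Antagonist-mode beta-lactamase reporter screen: HEK293H cells with UAS-bla under PPARd control, stimulated by 300 nM L165041 (final) alongside test compound for 17 h at 37 C, then FRET fluorescence after 2 h substrate incubation.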

[14] = qHTS assay to identify small molecule agonists of the AP-1 signaling pathway (AID 1159526; calls by dose curve; also: % is scaled to controls: 0 for no effect and ±100 for the full control effect); settings: ME-180 (cervical carcinoma) AP-1-bla reporter, beta-lactamase FRET ratio, 5 h; activation: at 76.8 µM (top of the series) unless noted
[15] = qHTS assay to identify small molecule agonists of the vitamin D receptor (VDR) signaling pathway - cell viability counter screen (AID 743224); settings: VDR-bla HEK293T viability, CellTiter-Glo luminescence, 16 h; activity change, negative = cytotoxicity: at 62.6 µM (top of the series)
Outline: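 VDR-bla cell line, quantitative HTS format; 16 h compound incubation (37C, 5% CO2); ATP-based CellTiter-Glo luminescence measured in the reporter assay wells.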
Tags tell the direction and shape of the fitted curve or compound fluorescence and quenching.

Chain of UniProt P11473 (P11473 whole entry, looked up): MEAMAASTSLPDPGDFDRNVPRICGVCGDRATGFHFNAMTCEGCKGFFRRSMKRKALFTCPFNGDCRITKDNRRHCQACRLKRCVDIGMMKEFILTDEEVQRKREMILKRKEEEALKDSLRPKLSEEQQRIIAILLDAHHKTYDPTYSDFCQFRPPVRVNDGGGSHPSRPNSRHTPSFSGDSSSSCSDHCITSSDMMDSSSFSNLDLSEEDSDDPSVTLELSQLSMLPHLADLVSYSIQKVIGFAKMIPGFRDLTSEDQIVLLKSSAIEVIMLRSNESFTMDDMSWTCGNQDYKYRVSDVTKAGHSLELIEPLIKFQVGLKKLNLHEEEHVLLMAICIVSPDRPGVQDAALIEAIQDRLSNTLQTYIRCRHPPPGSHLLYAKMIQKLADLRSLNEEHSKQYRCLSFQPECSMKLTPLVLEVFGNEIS
Chain of UniProt P19793 (P19793 whole entry, looked up): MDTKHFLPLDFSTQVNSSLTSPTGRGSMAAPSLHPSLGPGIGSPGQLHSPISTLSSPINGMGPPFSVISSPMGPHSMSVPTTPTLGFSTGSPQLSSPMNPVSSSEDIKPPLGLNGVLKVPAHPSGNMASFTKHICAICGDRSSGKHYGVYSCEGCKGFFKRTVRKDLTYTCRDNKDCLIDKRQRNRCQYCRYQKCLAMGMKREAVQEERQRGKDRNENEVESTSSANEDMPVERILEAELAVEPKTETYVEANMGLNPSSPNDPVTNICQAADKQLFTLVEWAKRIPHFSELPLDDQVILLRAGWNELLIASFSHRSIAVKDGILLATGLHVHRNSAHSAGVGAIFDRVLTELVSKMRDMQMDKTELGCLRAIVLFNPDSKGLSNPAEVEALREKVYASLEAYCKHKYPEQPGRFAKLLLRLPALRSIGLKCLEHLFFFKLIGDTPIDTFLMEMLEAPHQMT
Chain of UniProt Q03181 (Q03181 whole entry, looked up): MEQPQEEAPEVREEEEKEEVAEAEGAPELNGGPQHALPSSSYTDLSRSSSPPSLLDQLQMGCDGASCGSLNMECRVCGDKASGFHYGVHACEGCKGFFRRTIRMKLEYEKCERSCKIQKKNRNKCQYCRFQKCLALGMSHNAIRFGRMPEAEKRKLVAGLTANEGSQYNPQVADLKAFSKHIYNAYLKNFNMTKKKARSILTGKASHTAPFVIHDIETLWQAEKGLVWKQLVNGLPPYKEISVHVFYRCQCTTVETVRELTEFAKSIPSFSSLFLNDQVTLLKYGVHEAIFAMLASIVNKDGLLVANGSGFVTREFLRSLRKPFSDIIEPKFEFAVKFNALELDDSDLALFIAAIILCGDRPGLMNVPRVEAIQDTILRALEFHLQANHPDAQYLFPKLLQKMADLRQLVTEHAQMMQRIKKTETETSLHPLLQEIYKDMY
Chain of UniProt Q96RI1 (Q96RI1 whole entry, looked up): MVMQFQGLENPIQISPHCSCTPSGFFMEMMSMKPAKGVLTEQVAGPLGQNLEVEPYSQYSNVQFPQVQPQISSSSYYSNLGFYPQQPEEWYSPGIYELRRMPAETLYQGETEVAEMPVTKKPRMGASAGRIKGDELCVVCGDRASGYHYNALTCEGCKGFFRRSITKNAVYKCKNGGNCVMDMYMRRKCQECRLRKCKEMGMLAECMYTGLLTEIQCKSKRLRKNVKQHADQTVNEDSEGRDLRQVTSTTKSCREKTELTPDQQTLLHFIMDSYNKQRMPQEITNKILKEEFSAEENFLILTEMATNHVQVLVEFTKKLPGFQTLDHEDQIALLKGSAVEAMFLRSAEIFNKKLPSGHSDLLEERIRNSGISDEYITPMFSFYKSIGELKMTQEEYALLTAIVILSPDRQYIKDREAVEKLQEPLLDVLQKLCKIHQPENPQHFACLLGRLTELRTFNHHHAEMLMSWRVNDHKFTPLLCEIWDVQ

CCCCCCCCCCCCCC(=O)OCC(O)CO (stereo not drawn)
inactive: Potency [1] | Potency [3]
inconclusive: Potency [2] 21.9 µM [rising, partial curve, poor fit] | activity change, negative = inhibition [4] -5.92% | Potency [5] 0.0871 µM [cytotoxic, partial curve, poor fit] | Potency [6] 61.6 µM [activator, partial curve, poor fit] | Potency [7] 61.6 µM [fluorescent, partial curve, poor fit] | Potency [8] 49 µM [cytotoxic, partial curve, poor fit]

COc1cc(NCc2ccc3nc(N)nc(N)c3c2C)cc(OC)c1OC
inconclusive: Potency [1] 0.211 µM [cytotoxic, full curve] | Potency [9] 0.075 µM [inhibitor, full curve] | Potency [10] 0.119 µM [cytotoxic, full curve] | Potency [11] 0.075 µM [falling, full curve] | Potency [5] 0.12 µM [cytotoxic, full curve] | activation [6] 2.27% | Potency [7] 0.107 µM [inhibitor, full curve] | Potency [8] 0.134 µM [cytotoxic, full curve]

O=C1CCCN1CCO
inactive: Potency [13] | Potency [6]
inconclusive: activation [12] -2.49% | Potency [10] 0.275 µM [rising, partial curve, poor fit] | Potency [11] 19.5 µM [falling, full curve] | activity change, negative = inhibition [4] 23% [fluorescent] | Potency [7] 49 µM [activator] | Potency [8] 43.6 µM [cytotoxic]

CCCCC(CC)COCCO (stereo not drawn)
inconclusive: Potency [10] 0.275 µM [rising, full curve, poor fit] | Potency [5] 12.3 µM [cytotoxic, single point]
inactive: Potency [6] | Potency [14]

CC(=O)[C@@]1(O)CC[C@H]2[C@@H]3CCC4=CC(=O)CC[C@]4(C)[C@H]3CC[C@@]21C
inconclusive: Potency [1] 21.9 µM [cytotoxic, single point] | ratio activity, negative = inhibition [13] 8.59% and -2.57% | Potency [3] 17.4 µM [fluorescent] and 9.44 µM [fluorescent, partial curve, poor fit] | Potency [4] 54.9 µM [fluorescent, single point] | activity change, negative = inhibition [4] 10.6% | Potency [15] 21.9 µM [cytotoxic, single point] | Potency [5] 21.9 µM [cytotoxic, single point] | Potency [6] 0.0028 µM [falling, full curve] | Potency [7] 5.49 µM [rising, full curve, poor fit] | activation [7] -9.29% [at 35.3 µM]
